Test results published in publication PMC9014410, “Discovery of V-0219: A Small-Molecule Positive Allosteric Modulator of the Glucagon-Like Peptide-1 Receptor toward Oral Treatment for “Diabesity”” (Journal of Medicinal Chemistry, 2022).

How the values were obtained:
[1] = system: INS-1 β-cells; test: Insulin secretion by rat INS-1 / INS-1E insulinoma cells; assay type: cell-based
Description: The incubation was done using two types of culture media, defined as low glucose (0.5–3 mM) and high glucose (15 mM). […] Incubation with compounds lasted 30 min, and then the media was collected, centrifuged at 4 °C for 2 min until assayed for insulin using commercial ELISA kit.

[2] = system: Zucker (fa/fa) obese male rats; test: Glucose tolerance test in diabetic fatty Zucker rats; assay type: in vivo, rat; details: 9, 2 but not 0.1 mg/kg, ip; glucose load 2 g/kg
[3] = PAMPA-BBB membrane permeability; assay type: in vitro ADME, porcine
[4] = Stability in human liver microsomes; assay type: in vitro ADME
[5] = Stability in dog liver microsomes; assay type: in vitro ADME
[6] = Stability in rat liver microsomes; assay type: in vitro ADME
[7] = molecular target: T1, CYP1A2 (Homo sapiens, UniProt P05177); test: P450 cytochrome inhibition, CYP1A2; assay type: in vitro ADME
T1 sequence (P05177 1-516): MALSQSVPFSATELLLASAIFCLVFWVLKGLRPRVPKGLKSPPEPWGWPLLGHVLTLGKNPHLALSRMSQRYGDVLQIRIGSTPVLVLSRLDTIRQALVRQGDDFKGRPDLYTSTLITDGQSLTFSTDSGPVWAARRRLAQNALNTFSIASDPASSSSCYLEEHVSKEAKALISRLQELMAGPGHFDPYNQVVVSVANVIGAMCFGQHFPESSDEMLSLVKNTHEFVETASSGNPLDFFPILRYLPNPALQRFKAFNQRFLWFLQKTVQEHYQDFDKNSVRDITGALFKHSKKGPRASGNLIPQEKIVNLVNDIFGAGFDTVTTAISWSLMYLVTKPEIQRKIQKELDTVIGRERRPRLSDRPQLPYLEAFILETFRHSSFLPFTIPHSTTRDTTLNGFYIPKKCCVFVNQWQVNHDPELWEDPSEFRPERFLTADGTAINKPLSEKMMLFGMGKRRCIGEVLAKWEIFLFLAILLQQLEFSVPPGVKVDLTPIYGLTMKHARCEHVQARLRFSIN
Description: (§1) Inhibition of P450 cytochrome isoforms. […] Effect on hERG channel. […] Patch clamp experiments were carried out using […]® robot. […] After S27

[8] = molecular target: CYP2C19 (Homo sapiens, UniProt P33261); test: P450 cytochrome inhibition, CYP2C19; assay type: in vitro ADME
UniProt P33261, sequence (P33261 whole entry): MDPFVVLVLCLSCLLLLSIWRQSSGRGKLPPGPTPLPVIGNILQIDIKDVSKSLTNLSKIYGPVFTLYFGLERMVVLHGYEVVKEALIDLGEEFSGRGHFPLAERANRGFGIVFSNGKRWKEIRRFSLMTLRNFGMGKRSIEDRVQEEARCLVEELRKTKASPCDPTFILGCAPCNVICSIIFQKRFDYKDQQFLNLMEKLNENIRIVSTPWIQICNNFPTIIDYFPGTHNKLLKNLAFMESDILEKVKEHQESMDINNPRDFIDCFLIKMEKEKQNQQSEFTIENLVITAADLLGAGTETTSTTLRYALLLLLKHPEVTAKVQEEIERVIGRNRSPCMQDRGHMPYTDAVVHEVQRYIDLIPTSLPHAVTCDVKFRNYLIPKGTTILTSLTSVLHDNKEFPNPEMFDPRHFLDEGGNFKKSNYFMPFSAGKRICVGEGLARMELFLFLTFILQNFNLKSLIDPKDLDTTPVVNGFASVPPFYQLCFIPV
Description: as §1

[9] = molecular target: CYP2D6 (Homo sapiens, UniProt P10635); test: P450 cytochrome inhibition, CYP2D6; assay type: in vitro ADME
UniProt P10635, sequence (P10635 whole entry): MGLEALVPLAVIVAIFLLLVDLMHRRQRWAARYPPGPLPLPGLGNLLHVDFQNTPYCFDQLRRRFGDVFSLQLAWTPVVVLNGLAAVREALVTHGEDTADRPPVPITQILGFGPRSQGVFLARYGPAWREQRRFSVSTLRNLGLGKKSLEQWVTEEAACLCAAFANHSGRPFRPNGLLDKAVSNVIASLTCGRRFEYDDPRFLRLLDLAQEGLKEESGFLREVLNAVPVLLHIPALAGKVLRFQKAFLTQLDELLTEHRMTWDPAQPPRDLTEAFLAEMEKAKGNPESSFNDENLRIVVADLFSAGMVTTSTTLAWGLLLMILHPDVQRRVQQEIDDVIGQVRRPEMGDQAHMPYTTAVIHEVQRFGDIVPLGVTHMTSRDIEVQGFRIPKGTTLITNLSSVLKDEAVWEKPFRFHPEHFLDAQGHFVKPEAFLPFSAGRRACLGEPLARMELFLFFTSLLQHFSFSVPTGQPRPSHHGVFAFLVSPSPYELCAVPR
Description: as §1

[10] = molecular target: CYP3A (Homo sapiens, UniProt P08684); test: P450 cytochrome inhibition, CYP3A; assay type: in vitro ADME
Description: as §1

[11] = molecular target: T2, AT1 (h) (Homo sapiens, UniProt P30556); test: biochemical; set-up: radioligand displacement binding panel (Eurofins Cerep), % inhibition of control specific binding; details: antagonist radioligand; read-out: % Inhibition of Control Specific Binding
T2 construct: gene AGTR1
T2 sequence (P30556 1-359): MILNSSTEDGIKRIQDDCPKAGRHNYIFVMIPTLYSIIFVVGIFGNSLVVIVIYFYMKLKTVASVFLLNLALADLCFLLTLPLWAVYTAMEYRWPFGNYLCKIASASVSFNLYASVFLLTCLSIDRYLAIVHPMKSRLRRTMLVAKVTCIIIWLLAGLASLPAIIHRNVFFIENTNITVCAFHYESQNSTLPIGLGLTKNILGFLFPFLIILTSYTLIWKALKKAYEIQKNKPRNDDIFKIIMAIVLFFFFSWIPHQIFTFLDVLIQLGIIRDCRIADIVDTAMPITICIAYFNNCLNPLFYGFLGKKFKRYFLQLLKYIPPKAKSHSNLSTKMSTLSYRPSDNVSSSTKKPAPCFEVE
Excerpt: (§2) 3. Binding to off-target receptors
(§3) Eurofins Cerep (France). Significant binding affinity was defined as a displacement of target
(§4) selective radioligand greater than 50% using a concentration of 10 µM of 9.

[12] = molecular target: T3, CB1 (h) (Homo sapiens, UniProt P21554); test: biochemical; set-up: radioligand displacement binding panel (Eurofins Cerep), % inhibition of control specific binding; details: agonist radioligand; read-out: % Inhibition of Control Specific Binding
T3 construct: gene CNR1
T3 sequence (P21554 whole entry): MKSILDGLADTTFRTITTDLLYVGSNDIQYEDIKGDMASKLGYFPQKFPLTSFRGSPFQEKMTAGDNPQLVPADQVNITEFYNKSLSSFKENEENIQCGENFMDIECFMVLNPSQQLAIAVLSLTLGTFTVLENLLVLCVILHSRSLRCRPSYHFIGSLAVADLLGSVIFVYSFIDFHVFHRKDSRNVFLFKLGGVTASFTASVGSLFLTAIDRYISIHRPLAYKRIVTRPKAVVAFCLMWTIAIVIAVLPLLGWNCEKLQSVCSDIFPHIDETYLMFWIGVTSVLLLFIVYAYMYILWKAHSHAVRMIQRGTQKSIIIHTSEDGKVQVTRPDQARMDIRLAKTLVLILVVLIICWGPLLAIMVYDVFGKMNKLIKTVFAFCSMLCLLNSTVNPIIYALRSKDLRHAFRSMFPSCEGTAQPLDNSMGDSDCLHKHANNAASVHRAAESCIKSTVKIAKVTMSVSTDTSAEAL
Excerpt: as §2, §3, §4

[13] = molecular target: T4, CCK1 (CCKA) (h) (Homo sapiens, UniProt P32238); test: biochemical; set-up: radioligand displacement binding panel (Eurofins Cerep), % inhibition of control specific binding; details: agonist radioligand; read-out: % Inhibition of Control Specific Binding
T4 construct: gene CCKAR
T4 sequence (P32238 1-428): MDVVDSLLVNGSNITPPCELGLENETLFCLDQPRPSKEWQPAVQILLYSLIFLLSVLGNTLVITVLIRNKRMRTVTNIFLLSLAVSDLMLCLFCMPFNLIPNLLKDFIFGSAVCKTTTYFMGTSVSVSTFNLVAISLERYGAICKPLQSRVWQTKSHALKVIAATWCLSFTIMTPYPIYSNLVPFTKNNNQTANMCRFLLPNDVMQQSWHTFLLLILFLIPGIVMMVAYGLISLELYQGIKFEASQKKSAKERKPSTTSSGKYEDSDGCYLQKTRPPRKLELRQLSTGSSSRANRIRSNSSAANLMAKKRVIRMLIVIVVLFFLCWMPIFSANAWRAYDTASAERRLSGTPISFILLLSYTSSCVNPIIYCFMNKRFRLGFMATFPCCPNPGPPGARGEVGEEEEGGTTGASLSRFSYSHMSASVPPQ
Excerpt: as §2, §3, §4

[14] = molecular target: T5, CXCR2 (IL-8B) (h) (Homo sapiens, UniProt P25025); test: biochemical; set-up: radioligand displacement binding panel (Eurofins Cerep), % inhibition of control specific binding; details: agonist radioligand; read-out: % Inhibition of Control Specific Binding
T5 sequence (P25025 1-360): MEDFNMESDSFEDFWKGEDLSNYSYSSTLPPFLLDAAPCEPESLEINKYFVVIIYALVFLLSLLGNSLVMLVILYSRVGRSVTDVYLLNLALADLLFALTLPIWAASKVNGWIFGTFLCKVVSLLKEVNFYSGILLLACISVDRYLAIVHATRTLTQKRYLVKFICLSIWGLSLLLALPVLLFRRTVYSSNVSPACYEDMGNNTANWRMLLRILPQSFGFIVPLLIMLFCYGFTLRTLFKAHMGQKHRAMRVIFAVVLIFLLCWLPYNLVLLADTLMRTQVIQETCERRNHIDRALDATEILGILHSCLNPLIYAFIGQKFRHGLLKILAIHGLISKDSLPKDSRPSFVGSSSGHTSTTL
Excerpt: as §2, §3, §4

[15] = molecular target: T6, D1 (h) (Homo sapiens, UniProt P21728); test: biochemical; set-up: radioligand displacement binding panel (Eurofins Cerep), % inhibition of control specific binding; details: antagonist radioligand; read-out: % Inhibition of Control Specific Binding
T6 construct: gene DRD1
T6 sequence (P21728 whole entry): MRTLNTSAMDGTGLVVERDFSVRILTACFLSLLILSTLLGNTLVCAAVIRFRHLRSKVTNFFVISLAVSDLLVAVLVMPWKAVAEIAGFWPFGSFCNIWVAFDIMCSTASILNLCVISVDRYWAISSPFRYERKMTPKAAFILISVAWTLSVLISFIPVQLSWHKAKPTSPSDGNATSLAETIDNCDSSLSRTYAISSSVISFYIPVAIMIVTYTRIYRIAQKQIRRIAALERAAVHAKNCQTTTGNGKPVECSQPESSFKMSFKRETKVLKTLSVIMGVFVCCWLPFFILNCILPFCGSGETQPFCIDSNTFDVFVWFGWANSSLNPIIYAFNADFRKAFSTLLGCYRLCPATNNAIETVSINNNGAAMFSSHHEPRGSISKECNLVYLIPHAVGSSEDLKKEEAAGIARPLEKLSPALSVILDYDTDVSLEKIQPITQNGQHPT
Excerpt: as §2, §3, §4

[16] = molecular target: T7, D2S (h) (Homo sapiens, UniProt P14416); test: biochemical; set-up: radioligand displacement binding panel (Eurofins Cerep), % inhibition of control specific binding; details: antagonist radioligand; read-out: % Inhibition of Control Specific Binding
T7 construct: gene DRD2; short isoform D2S
T7 sequence (P14416 whole entry, canonical isoform): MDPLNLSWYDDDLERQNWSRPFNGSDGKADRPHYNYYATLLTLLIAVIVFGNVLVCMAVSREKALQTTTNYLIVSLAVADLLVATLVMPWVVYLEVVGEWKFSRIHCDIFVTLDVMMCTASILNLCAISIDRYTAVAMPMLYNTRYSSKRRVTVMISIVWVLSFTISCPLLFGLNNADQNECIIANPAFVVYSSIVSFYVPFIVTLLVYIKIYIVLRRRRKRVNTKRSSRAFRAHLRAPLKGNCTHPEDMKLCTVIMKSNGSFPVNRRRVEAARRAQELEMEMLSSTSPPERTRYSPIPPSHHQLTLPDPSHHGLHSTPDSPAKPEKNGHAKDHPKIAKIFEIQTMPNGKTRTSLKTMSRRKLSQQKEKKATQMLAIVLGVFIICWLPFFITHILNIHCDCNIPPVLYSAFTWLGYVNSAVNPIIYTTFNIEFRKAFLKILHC
Excerpt: as §2, §3, §4

[17] = molecular target: T8, ETA (h) (Homo sapiens, UniProt P25101); test: biochemical; set-up: radioligand displacement binding panel (Eurofins Cerep), % inhibition of control specific binding; details: agonist radioligand; read-out: % Inhibition of Control Specific Binding
T8 construct: gene EDNRA
T8 sequence (P25101 1-427): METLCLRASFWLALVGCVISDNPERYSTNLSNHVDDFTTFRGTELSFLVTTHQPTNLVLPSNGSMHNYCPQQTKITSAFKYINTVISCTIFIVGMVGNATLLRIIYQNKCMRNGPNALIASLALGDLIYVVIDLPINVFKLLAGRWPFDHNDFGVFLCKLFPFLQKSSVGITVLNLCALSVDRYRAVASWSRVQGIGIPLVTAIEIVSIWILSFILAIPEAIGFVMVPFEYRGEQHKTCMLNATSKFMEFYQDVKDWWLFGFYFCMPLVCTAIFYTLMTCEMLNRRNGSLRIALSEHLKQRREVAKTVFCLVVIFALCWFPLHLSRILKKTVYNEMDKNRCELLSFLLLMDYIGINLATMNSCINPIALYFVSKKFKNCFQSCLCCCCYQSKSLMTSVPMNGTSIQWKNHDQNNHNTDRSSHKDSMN
Excerpt: as §2, §3, §4

[18] = molecular target: T9, M1 (h) (Homo sapiens, UniProt P11229); test: biochemical; set-up: radioligand displacement binding panel (Eurofins Cerep), % inhibition of control specific binding; details: antagonist radioligand; read-out: % Inhibition of Control Specific Binding
T9 construct: gene CHRM1
T9 sequence (P11229 whole entry): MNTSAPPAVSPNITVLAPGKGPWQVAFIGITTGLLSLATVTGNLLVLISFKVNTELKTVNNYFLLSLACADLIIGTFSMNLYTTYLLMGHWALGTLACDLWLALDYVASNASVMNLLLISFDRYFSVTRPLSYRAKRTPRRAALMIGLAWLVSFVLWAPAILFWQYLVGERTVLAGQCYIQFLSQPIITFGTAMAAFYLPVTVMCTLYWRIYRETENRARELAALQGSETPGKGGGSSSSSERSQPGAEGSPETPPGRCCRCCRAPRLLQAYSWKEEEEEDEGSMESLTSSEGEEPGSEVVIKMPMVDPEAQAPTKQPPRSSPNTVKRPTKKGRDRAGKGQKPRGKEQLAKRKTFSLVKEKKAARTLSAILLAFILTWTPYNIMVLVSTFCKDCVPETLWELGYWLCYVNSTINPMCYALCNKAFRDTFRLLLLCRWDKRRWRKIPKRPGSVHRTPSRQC
Excerpt: as §2, §3, §4

[19] = molecular target: T10, M2 (h) (Homo sapiens, UniProt P08172); test: biochemical; set-up: radioligand displacement binding panel (Eurofins Cerep), % inhibition of control specific binding; details: antagonist radioligand; read-out: % Inhibition of Control Specific Binding
T10 construct: gene CHRM2
T10 sequence (P08172 1-466): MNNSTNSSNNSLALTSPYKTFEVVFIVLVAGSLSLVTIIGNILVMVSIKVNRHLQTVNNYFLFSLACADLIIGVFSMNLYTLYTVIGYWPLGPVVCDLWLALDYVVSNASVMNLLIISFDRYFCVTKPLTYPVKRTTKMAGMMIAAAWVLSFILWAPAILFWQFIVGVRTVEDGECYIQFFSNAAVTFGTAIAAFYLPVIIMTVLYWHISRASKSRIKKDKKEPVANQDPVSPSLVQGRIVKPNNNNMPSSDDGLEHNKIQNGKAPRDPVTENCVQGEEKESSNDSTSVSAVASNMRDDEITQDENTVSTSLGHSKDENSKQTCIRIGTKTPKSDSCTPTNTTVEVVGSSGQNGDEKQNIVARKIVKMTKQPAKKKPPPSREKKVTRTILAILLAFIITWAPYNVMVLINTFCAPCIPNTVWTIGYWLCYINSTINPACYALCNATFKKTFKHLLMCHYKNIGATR
Excerpt: as §2, §3, §4

[20] = molecular target: T11, M3 (h) (Homo sapiens, UniProt P20309); test: biochemical; set-up: radioligand displacement binding panel (Eurofins Cerep), % inhibition of control specific binding; details: antagonist radioligand; read-out: % Inhibition of Control Specific Binding
T11 construct: gene CHRM3
T11 sequence (P20309 whole entry): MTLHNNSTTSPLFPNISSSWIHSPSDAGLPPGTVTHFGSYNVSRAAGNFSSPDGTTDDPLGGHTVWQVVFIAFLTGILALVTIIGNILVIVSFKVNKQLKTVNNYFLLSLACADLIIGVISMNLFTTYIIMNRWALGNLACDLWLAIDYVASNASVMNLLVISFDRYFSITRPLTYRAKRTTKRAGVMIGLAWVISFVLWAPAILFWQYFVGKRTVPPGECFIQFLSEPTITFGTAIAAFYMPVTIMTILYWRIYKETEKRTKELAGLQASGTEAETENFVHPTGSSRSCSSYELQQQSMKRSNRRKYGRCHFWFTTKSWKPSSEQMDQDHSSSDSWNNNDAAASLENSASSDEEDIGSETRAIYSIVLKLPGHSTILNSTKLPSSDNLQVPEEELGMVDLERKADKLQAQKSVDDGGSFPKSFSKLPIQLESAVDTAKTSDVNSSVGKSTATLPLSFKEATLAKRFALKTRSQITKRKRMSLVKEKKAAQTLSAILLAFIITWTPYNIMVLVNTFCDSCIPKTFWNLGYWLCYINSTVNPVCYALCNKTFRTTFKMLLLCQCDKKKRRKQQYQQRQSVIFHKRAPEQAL
Excerpt: as §2, §3, §4

[21] = molecular target: T12, MC4 (h) (Homo sapiens, UniProt P32245); test: biochemical; set-up: radioligand displacement binding panel (Eurofins Cerep), % inhibition of control specific binding; details: agonist radioligand; read-out: % Inhibition of Control Specific Binding
T12 construct: gene MC4R
T12 sequence (P32245 whole entry): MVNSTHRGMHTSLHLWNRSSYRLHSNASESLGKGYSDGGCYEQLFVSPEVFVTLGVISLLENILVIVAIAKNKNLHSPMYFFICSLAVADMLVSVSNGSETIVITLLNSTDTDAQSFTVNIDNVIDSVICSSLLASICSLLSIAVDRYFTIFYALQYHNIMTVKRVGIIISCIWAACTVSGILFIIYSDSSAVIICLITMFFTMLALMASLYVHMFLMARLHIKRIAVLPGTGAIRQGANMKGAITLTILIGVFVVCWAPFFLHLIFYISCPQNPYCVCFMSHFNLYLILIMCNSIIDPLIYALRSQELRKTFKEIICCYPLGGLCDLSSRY
Excerpt: as §2, §3, §4

[22] = molecular target: T13, β2 (h) (Homo sapiens, UniProt P07550); test: biochemical; set-up: radioligand displacement binding panel (Eurofins Cerep), % inhibition of control specific binding; details: agonist radioligand; read-out: % Inhibition of Control Specific Binding
T13 construct: gene ADRB2
T13 sequence (P07550 whole entry): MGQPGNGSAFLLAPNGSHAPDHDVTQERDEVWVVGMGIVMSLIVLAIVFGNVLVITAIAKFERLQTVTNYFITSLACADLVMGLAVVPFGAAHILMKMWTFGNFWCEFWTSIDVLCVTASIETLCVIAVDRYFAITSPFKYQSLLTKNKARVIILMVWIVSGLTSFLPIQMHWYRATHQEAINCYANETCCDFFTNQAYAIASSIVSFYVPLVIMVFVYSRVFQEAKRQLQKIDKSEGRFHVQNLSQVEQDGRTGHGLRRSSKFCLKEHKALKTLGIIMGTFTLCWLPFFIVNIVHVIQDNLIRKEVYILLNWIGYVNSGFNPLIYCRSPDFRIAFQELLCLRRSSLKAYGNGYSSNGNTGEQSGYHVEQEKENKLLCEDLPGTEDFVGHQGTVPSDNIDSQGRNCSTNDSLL
Excerpt: as §2, §3, §4

FC(F)(F)c1ccc(-c2noc(CN3CCCC(CN4CCOCC4)C3)n2)cc1 (centres unmarked) [compound 9, 4-{[1-({3-[4-(Trifluoromethyl)phenyl]-1,2,4-oxadiazol-5-yl}methyl)piperidin-3-yl]methyl}morpholine]
potentiation of insulin secretion ([1]; 0.1 nM 9, GLP-1, high glucose): 1.8 fold
EC50 ([1]; Rattus norvegicus, INS1, read-out: EC50 value of 9, potentiation of the incretin effect of GLP-1): 8 pM
potentiation of GLP-1-induced insulin secretion (in words) ([1]; compound 1 μM, GLP-1 10 nM, high glucose 15 mM): boosting glucose-dependent GLP-1-induced secretion of insulin from β-cells
glucose handling after glucose load [2]: improvement of glucose release was also observed
brain penetration (in words) [3]: moderate brain penetration
Papp at 5 h, 50 µM ([3]; pig, PAMPA, 50 µM, PBS pH 7.4, read-out: Pe): 2 ×10⁻⁶ cm/s
Papp at 5 h, 100 µM ([3]; pig, PAMPA, 100 µM, PBS pH 7.4, read-out: Pe): 1.8 ×10⁻⁶ cm/s
Clint (mL/min/g liver) ([4]; Human): 1.8 mL/min/g liver
% Metabolism after 30 min ([4]; Human, 1 μM): 39%
half-life at 1 µM ([4]; human, human liver microsomes, read-out: Half-life time): > 30 min
Clint (mL/min/g liver) ([5]; Dog): 2.3 mL/min/g liver
% Metabolism after 30 min ([5]; Dog, 1 μM): 46%
half-life at 1 µM ([5]; dog, dog liver microsomes, read-out: Half-life time): > 30 min
Clint (mL/min/g liver) ([6]; Rat): 2.1 mL/min/g liver
% Metabolism after 30 min ([6]; Rat, 1 μM): 42%
half-life at 1 µM ([6]; rat, rat liver microsomes, read-out: Half-life time): > 30 min
IC50 [7]: 26 µM
IC50 [8]: 48 µM
IC50 [9]: 19 µM
IC50 [10]: > 100 µM
inhibition at 10 µM [11]: -6%
inhibition at 10 µM [12]: 15%
inhibition at 10 µM [13]: 2%
inhibition at 10 µM [14]: -6%
inhibition at 10 µM [15]: 4%
inhibition at 10 µM [16]: 8%
inhibition at 10 µM [17]: -13%
inhibition at 10 µM [18]: 30%
inhibition at 10 µM [19]: -7%
inhibition at 10 µM [20]: 45%
inhibition at 10 µM [21]: -8%
inhibition at 10 µM [22]: -11%
